The chains are these.
B1: LINE1-mini (parent)
chain: GGCAGAGCUCAACACAGCGUGGCAAAGUGGCUGUGGCUAGACUGCC

Read counts are not given, so values of variants with three or more changes are uncertain.

The variants in this series derive from B1. Put plainly: self-cleavage, relative activity (ratio to wild type); higher = more cleavage; in vitro, sequencing; the parent is a self-cleaving ribozyme.
Regarding GGCAUAGCUCAACAUAGCCUGGCAAAGUGGCUGUGGCUAGACUGCA, the self-cleavage stood at 0.43. For the variant GGCAUAGCUCAACAGAGCGUAGCAAAGUGGCUGUGGCUAGACUGCC, the self-cleavage came to 0.07.

Turning to GGCAUAGCUCAACGCAGCGUGGCAAACUGGCUGUGGCUAGUCUGCC, the self-cleavage stood at 0.04. As for GGCAUAGCUCAACCCAGCGUGGCAAAGUGGCUGUGGCUAGACCGCC, the figure is 0.07; as for GGCAUAGCUAAACACAGCGUGGCAAAGUGGCGGUGGCUAGACUGCC, 0.08.

GGCAUAGCUCAACAUAGCAUGGCAAAGUGGCUGUGGCUGGACUGCC: the self-cleavage was determined as 0.02. Turning to GGCAUAGCUCAAGACAGCACGGCAAAGUGGCUGUUGCUAGACUGCC, the self-cleavage turned out to be 0.03. The figure for GGCAUAGCUCAACACGGCGUGGCAAAGUGGCUGUGGCUAGAAUGCC is 0.12; for GGCAUAGCUAAACACGGCGUGGCAAACUGGCUGUGGCUAGACUACC it is 0.02. GGCAUAGCUCAACACAGCGUGGCGAAGUGGCUGUGGCUAGGCUGCC: the self-cleavage is 0.02.

Consider GGCAUAGCUCAAAACAGCGUGGCGAAGGGGCUGUGGCUAGAGUGCC, for which the self-cleavage amounted to 0.03. As for GGCAUAGCUCAACACAGCGUGGCAAAGUGGCUGUGGCUAGCCUGCU, the figure is 0.07; as for GGCAUAGUUCAUCACGGCGUGGCAAAGUGGCUGUGACUAGACUACC, 0.02; as for GGCAUAGCUCAGCACAGCGUGGCAAAGUCGCUGUGGCUAUACUGCC, 0.06.

As for GGCAUAGCUCAACAUAGCGUGGCAAAGUGGCUGUUGUUAGACAGCC, the self-cleavage turned out to be 0.07. With GGCAUAGAUAAACACAGCGUGGCAAUGUUGCUGGGGCUAGACUGCC, the self-cleavage is 0.03. As for GGCAUAGCUCAAUACAGCGUGGCAAAGUAGCUGUGGCUAGACUGCC, the figure is 0.02; as for GGCAUAGAUCGACACAGCGUGACAAAGUGGCUGUGGCUAGACUCCC, 0.02; as for GGCAUAGCUAAACACCGCGUGGCAAAGUGGCUGUGGCUAGACUGCC, 0.03. As for GGCAUAGAUCAACACAUCGUGGCAAAGUGGCUGUGGCUAGACUGCC, the figure is 0.11.

As to GGCAUAGCUCAACACAGCGUGGCAAAGUGGCUGUGGCUAGUCUGCA, the self-cleavage stood at 0.13. The figure for GGCAUAGCUCAACAGAGCGUGGCAAUGUGGCAGUGGCUAGACUGCC is 0; for GGCAUAGCUCAACACGGCGUGGCAAAGUGGCUGUGGCUAGACUCCC it is 0.01; for GGCAUAGCUAAACACAUCGUGGCAAAGUGGCUGUGGGUUGACUGCC it is 0. In the case of GGCAUAGCUCAACACAGCGUGGCAACGUGCCUGUGGCUAGACUGCC, the self-cleavage came to 0.05. As for GGCAUAGAUCAACACAGCGUGGCAAAGCGGUUGUGGCUAGACUGCC, the figure is 0.13; as for GGCAUAGCUAACCAAAGCGUGGCAAAGUGGCUGUGGCUAGACUGCC, 0.01. As for GGCAUAGCUCAACACAGAGUGGCAAAGUGGCUGUGGCUAUACUGAC, the figure is 0.02. The figure for GGCAUAGCUCAACACAGCGUGGAUAAGUGGCUAUGGCUAGACUACC is 0.04; for GGCAUAGGUGAACACAGCGUGGCAAAGUGGCUGUGGCAAGACUGCC it is 0.03; for GGCAUAGCUCAACGCAGCGUGGCAAAGUGGCUGUGGCUUGACUGCC it is 0.01.

GGCAUAGCUCAACACAGCGUGGCGAACUGGCUGGGGGUAGACUGCC: the self-cleavage is 0.01.

With GGCAUAGCUCAAGACAGCAUGGCAAAGUGGCUGUGGCUAGACUGCC, the self-cleavage amounted to 0.06. The figure for GGCAUAGCUCAACUCAGCGUGGCAAAGUCGCUGUGGCUAGACUGCC is 0.65; for GGCAUAGCUCAACACAGCGUGGCACAGCGGCUGUGGCUAGACUGCC it is 0.06.

Regarding GGCAUAGUUCAACAGAGCGUGGCAAAGUUGCUGUGGCUAGACUGCC, the self-cleavage was 0.07. Consider GGCAUAGCUCAACACGGCGUGGCAAAGUGGCUGUGGCUAGACACCC, for which the self-cleavage turned out to be 0. The figure for GGCAUAGCUCAACUCCGCGUGGCAAAGUUGCAGUGGCUAGACUGCC is 0.11. The figure for GGCAUAGCUCAGCACAGCGUGGUAAAGUGUCUGUGGCUUGACUGCC is 0.02. On to GGCAUAGCUAAACACAGCGUGGCCAAGUGGCUGUGGCUAGACUGCC, for which the self-cleavage is 0.05. As for GGCAUAGCUCAACACUGCGUGGCAACGUGGCUGUGGCUAGCCUGCG, the self-cleavage came to 0.

Take GGCAUAGAUCAACACAGUGUGGCAAAGUGGCUGUGGGUAGACUGCC: the self-cleavage worked out at 0.11. As for GGCAUAGCUCAACACAGAGUGGCAAAGUGGUUAUGGCUAGACUGCC, the figure is 0.04; as for GGCAUAGCUCAACAAAGCGUGGCAAAGUGCCUGGGGCUAGACUGCC, 0. The figure for GGCAUAGAUCAACACAGCGUGGCAAAGUAGCUGUGGCUAGACUGCC is 0.02; for GGCAUAGCUCAACAAAGCGUGGCAAAGUGGCUGUGUCUAUACUGCC it is 0.01; for GGCAUAGCUCAACAGAGCGUCGCAAAGUGGCGGUGGCCAGACUGCC it is 0.

Regarding GGCAUAGCUCAAGACAGCGUGGCAAAGUGGCUGUCGCUAGACUGCC, the self-cleavage was 0.13. The figure for GGCAUAGCUGAACACAGCGUGACAAAGUGGCUGUGGCUGGACUGCC is 0.02. As to GGCAUAGGUCAACCCAGCGUGGCAAAGUGGCUGUGGCUCCACUGCC, the self-cleavage stood at 0.02. Consider GGCAUAGCUCAACGCAGCGAGGCAAGGUGGCUGUGGCUAGACUGCC, for which the self-cleavage came out at 0.06. The figure for GGCAUAGGUCAACACAGGGUGGCAAAGUGGCUGUGGGUAGACAGCC is 0.04; for GGCAUAGCUCAACGCAGCGUGGCAAAGUGGAUGUGGCUAGACUGCC it is 0.04; for GGCAUAGCUCAACACUGCGUGGCAAAGUGGCUGUGACUAGACUGCC it is 0.03. The figure for GGCAUAGCUCAACACAGCGUGGCACAGUGGCUGUGUCUAGAGUGCC is 0; for GGCAUAGCUCAAGACGGUGUGGCAAAGUGGCUGUGGCUAGACUGCC it is 0.02.

These data come from the RNAGym collection of RNA variant scans (doi:10.7554/elife.90254).
